{
  "source": "paper PMC7819943",
  "about": "“Rice protein-binding microarrays: a tool to detect cis-acting elements near promoter regions in rice”",
  "note": "This is one part of the list.",
  "data": [
    {"biological_target": "T1, OsWOX13 (Oryza sativa, UniProt Q5QMM3 1-267)", "T1 sequence": "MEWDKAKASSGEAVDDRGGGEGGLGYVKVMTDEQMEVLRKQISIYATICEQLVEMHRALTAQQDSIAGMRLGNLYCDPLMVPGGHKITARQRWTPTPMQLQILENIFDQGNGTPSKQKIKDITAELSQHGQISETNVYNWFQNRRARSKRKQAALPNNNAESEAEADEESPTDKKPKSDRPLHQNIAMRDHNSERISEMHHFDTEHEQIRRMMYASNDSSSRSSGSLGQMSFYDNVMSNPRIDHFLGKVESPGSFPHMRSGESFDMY", "assay": "protein-binding microarray (RPBM); PBS, 2% BSA, 51.3 ng/ul salmon testes DNA, 50 uM zinc acetate, 200 nM TF, 25 C, 1 h; high values mean tight binding", "details": "protein: recombinant; tags: N-terminal polyhistidine and DsRed monomer fusion (pET32a); label: CyDye5-dUTP incorporated in the synthesized complementary strand; 3' TTTTT single-stranded linker to array surface; dsDNA, one strand shown", "in_short": "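The binding signal is fluorescence intensity per array feature (arbitrary units). Readings came from an Axon 4000B scanner after a washed, 2% BSA-blocked, double-stranded custom Agilent array had been incubated for 1 h at 25 °C with 200 nM protein and 50 µM zinc acetate. The protein was a Ni–NTA-purified transcription factor fused N-terminally to polyhistidine and DsRed, expressed in E. coli BL21-CodonPlus.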", "values": [
      {"sequence": "ACTTAATGATACTCTCAAATTAATTAAGTTGTGTGACAGTCGGAGTCACCTAGTGCAG", "binding signal": "21300 fluorescence intensity (a.u.)"},
      {"sequence": "ATCATATTAATTATTTCAAATTTACCATTTTATCATGTATCGGAGTCACCTAGTGCAG", "binding signal": "15800 fluorescence intensity (a.u.)"},
      {"sequence": "CCTTACTAATTGTCACAAAAGTTTAGCAGATGTCATCCTTCGGAGTCACCTAGTGCAG", "binding signal": "14600 fluorescence intensity (a.u.)"},
      {"sequence": "CCCCAATCACTTCAATTACAGAGCACCAAACGAATTTAGCCGGAGTCACCTAGTGCAG", "binding signal": "37100 fluorescence intensity (a.u.)"},
      {"sequence": "TGGTAAGCAATCAGCCAATCACCACAATACTGGACCGCGTCGGAGTCACCTAGTGCAG", "binding signal": "27100 fluorescence intensity (a.u.)"},
      {"sequence": "TTGACTGATTGCACGTCCAACCATAATTTCTTTTCGTCCACGGAGTCACCTAGTGCAG", "binding signal": "58600 fluorescence intensity (a.u.)"},
      {"sequence": "ACTTAATTAATTACCACCTTATGCAAGTGTAATATATATTCGGAGTCACCTAGTGCAG", "binding signal": "43500 fluorescence intensity (a.u.)"},
      {"sequence": "TGCCGATTGATCTTTTATCCTTTGGGGCATATGCTCGAGTCGGAGTCACCTAGTGCAG", "binding signal": "24400 fluorescence intensity (a.u.)"},
      {"sequence": "ACCTTTCATTCTCAGGTTATAATTATATTATCATTTCTTTCGGAGTCACCTAGTGCAG", "binding signal": "5420 fluorescence intensity (a.u.)"},
      {"sequence": "CGGTTAAATTAACAGAGGCGGGAGGGCAGCAACAAGTCAACGGAGTCACCTAGTGCAG", "binding signal": "11600 fluorescence intensity (a.u.)"},
      {"sequence": "CATCTTTTCAATTAAAGCTTTACAACCTAATATAACACACCGGAGTCACCTAGTGCAG", "binding signal": "7840 fluorescence intensity (a.u.)"},
      {"sequence": "GCTGACAAACAATCACGCTCTCGGCCCAAAACTTGTATCTCGGAGTCACCTAGTGCAG", "binding signal": "26800 fluorescence intensity (a.u.)"},
      {"sequence": "TTTACTAATAACGGATTAATTAGGCTTAATAAATTCGTCTCGGAGTCACCTAGTGCAG", "binding signal": "15800 fluorescence intensity (a.u.)"},
      {"sequence": "ACTCTAACAAGAATGGAAGTGATTGAAGTGTAAAATAGATCGGAGTCACCTAGTGCAG", "binding signal": "7790 fluorescence intensity (a.u.)"},
      {"sequence": "AAATATAATTATGTGAGATCTTGTTATAAAGATTTAATTGCGGAGTCACCTAGTGCAG", "binding signal": "27000 fluorescence intensity (a.u.)"},
      {"sequence": "CCCTTCATTTTATTGATAATTTGTTTTAGGTATATGCTCTCGGAGTCACCTAGTGCAG", "binding signal": "7450 fluorescence intensity (a.u.)"},
      {"sequence": "GTCCATGATTAACCATAAGTGCTATAGTAACTCACATTTGCGGAGTCACCTAGTGCAG", "binding signal": "17800 fluorescence intensity (a.u.)"},
      {"sequence": "GTAATACGTAATCTAGATTTGAGATTATGTAGAACATTCTCGGAGTCACCTAGTGCAG", "binding signal": "6500 fluorescence intensity (a.u.)"},
      {"sequence": "TCCAAATCATTTATAACCAATGTAATAGTCAATTCATACACGGAGTCACCTAGTGCAG", "binding signal": "4090 fluorescence intensity (a.u.)"},
      {"sequence": "TAAACAAATTAGCAGGTTGGCTACAAAATGTAATTGCTAGCGGAGTCACCTAGTGCAG", "binding signal": "14400 fluorescence intensity (a.u.)"},
      {"sequence": "TGTGATTGGGCACAAGCACAACAGCGTCACCATGGATCTTCGGAGTCACCTAGTGCAG", "binding signal": "29300 fluorescence intensity (a.u.)"},
      {"sequence": "ATTTAATAGAACAAAGTTACAATGCCAGAGTAAACAGTGCCGGAGTCACCTAGTGCAG", "binding signal": "5030 fluorescence intensity (a.u.)"},
      {"sequence": "CAAAATATATTTAATGAAATTAATTTTGTGTTTTAAGAGTCGGAGTCACCTAGTGCAG", "binding signal": "14500 fluorescence intensity (a.u.)"},
      {"sequence": "AGCTAATTTTCTAGCAAATATACTTAAACATACGTCTATTCGGAGTCACCTAGTGCAG", "binding signal": "13500 fluorescence intensity (a.u.)"},
      {"sequence": "GATGTGACAGGGATCTTAATTTTAGTCCCTGATCCAAACTCGGAGTCACCTAGTGCAG", "binding signal": "9690 fluorescence intensity (a.u.)"},
      {"sequence": "TATAAAACTGTAGTGATTTGTAAGCAATTCCGTTTGAACACGGAGTCACCTAGTGCAG", "binding signal": "6850 fluorescence intensity (a.u.)"},
      {"sequence": "ATTTTGAAAATTGACGGAAGGAGTCGCCTACCGCCCTCTGCGGAGTCACCTAGTGCAG", "binding signal": "9070 fluorescence intensity (a.u.)"},
      {"sequence": "CATTTAATTTTCCTAGTCACCCTTATTTAAATAACTTCAACGGAGTCACCTAGTGCAG", "binding signal": "6500 fluorescence intensity (a.u.)"},
      {"sequence": "TCTGTTGTAATTGTAATCTAATCATATTAAATCCTTAGTTCGGAGTCACCTAGTGCAG", "binding signal": "12800 fluorescence intensity (a.u.)"},
      {"sequence": "TTAAATTGTTGGATTTAGTCCTATACCGTTATAGGATGATCGGAGTCACCTAGTGCAG", "binding signal": "13000 fluorescence intensity (a.u.)"},
      {"sequence": "TTAAATTTAAATTTAAATTTAATTTTGAGATTTCTTTTCACGGAGTCACCTAGTGCAG", "binding signal": "55700 fluorescence intensity (a.u.)"},
      {"sequence": "TCAAATAATTAGAAGGGGTGAGACTTCGAATCCAAGTCGTCGGAGTCACCTAGTGCAG", "binding signal": "14400 fluorescence intensity (a.u.)"},
      {"sequence": "ACTAAACTATCATAAACTATCATGTTCATCCTCATTTGACCGGAGTCACCTAGTGCAG", "binding signal": "5550 fluorescence intensity (a.u.)"},
      {"sequence": "CTGTAATTTGTTTTGTTATCAATCTATGTTTAATACTTTACGGAGTCACCTAGTGCAG", "binding signal": "17400 fluorescence intensity (a.u.)"},
      {"sequence": "ATGATTTCCACTAAACCCAATTAATTATCCCAAGCAGATTCGGAGTCACCTAGTGCAG", "binding signal": "9000 fluorescence intensity (a.u.)"},
      {"sequence": "GCCCAATCACACGCGGGGAAAGTTGCGTGAGGGACTTCTCCGGAGTCACCTAGTGCAG", "binding signal": "7260 fluorescence intensity (a.u.)"},
      {"sequence": "TTCCCATTATCCAATCTCAATCCCACCCGCATTTTCCATTCGGAGTCACCTAGTGCAG", "binding signal": "3380 fluorescence intensity (a.u.)"},
      {"sequence": "CTTGACACACACTGCCCGCCACTGCCTCCTCACCATCCTACGGAGTCACCTAGTGCAG", "binding signal": "3680 fluorescence intensity (a.u.)"},
      {"sequence": "GAATGAAATAAACCTAATTAATAAAGACACTAAGACAGTGCGGAGTCACCTAGTGCAG", "binding signal": "5390 fluorescence intensity (a.u.)"},
      {"sequence": "CCAGACCAATCACGTTCCAGATAAGACCTGCAATTGGGCCCGGAGTCACCTAGTGCAG", "binding signal": "14800 fluorescence intensity (a.u.)"},
      {"sequence": "GAGGGTAATTTGGTCCGAGATAGTATTTTAGCGTGTAACCCGGAGTCACCTAGTGCAG", "binding signal": "3820 fluorescence intensity (a.u.)"},
      {"sequence": "CTTTTCTCCCAGTTTGATCAATTTCCACCCTTCAAATTCTCGGAGTCACCTAGTGCAG", "binding signal": "6860 fluorescence intensity (a.u.)"},
      {"sequence": "CAGCTCACTAATTAACTAACACAGGGAGTACGAAAACAAACGGAGTCACCTAGTGCAG", "binding signal": "3700 fluorescence intensity (a.u.)"},
      {"sequence": "TGTACGAATTAGCTATTAAATTGGTTATAGATGAATTAAACGGAGTCACCTAGTGCAG", "binding signal": "7260 fluorescence intensity (a.u.)"},
      {"sequence": "CGAGAATGCAGATAATGTTAATTTGCAAGTTCAATTTTGGCGGAGTCACCTAGTGCAG", "binding signal": "5730 fluorescence intensity (a.u.)"},
      {"sequence": "CTGTTGATTATTGCTATATTTGTCTGGGATTGTTAGTCTTCGGAGTCACCTAGTGCAG", "binding signal": "24500 fluorescence intensity (a.u.)"},
      {"sequence": "AGTGATAGATAAGTAAAAGGTATATATTTAAGGGATAAAACGGAGTCACCTAGTGCAG", "binding signal": "13000 fluorescence intensity (a.u.)"},
      {"sequence": "AAAATATAATTATTATCCAAAATACCCTCCAGGAACCCTACGGAGTCACCTAGTGCAG", "binding signal": "10200 fluorescence intensity (a.u.)"},
      {"sequence": "GAATTTGATTTGACAAATGAAATGGAGAGTTGGCCAAATACGGAGTCACCTAGTGCAG", "binding signal": "35000 fluorescence intensity (a.u.)"},
      {"sequence": "CAATCAAGGTGCTAGATGATTGATTGCCACCGAATCATTGCGGAGTCACCTAGTGCAG", "binding signal": "32900 fluorescence intensity (a.u.)"},
      {"sequence": "CCCAATCATCAATATAATTGCTAGTAATATCTTAAGCAACCGGAGTCACCTAGTGCAG", "binding signal": "25800 fluorescence intensity (a.u.)"},
      {"sequence": "GCATTCAATGACAATCAGATCAGCCATCATATGTGTTCGCCGGAGTCACCTAGTGCAG", "binding signal": "4520 fluorescence intensity (a.u.)"},
      {"sequence": "GTTTTGATTGCAAACTGTACTAAGACCATCCGTTGTAATTCGGAGTCACCTAGTGCAG", "binding signal": "41300 fluorescence intensity (a.u.)"},
      {"sequence": "TAAAATTCAATTAAATTAAAATTGAGGATTTATCATTTCTCGGAGTCACCTAGTGCAG", "binding signal": "13900 fluorescence intensity (a.u.)"}
    ]}
  ]
}
